# The whole screen tested about 340,000 compounds, of which about 12,000 (3.5%) were called active. This list was built around the results that the source calls inconclusive (neither active nor inactive); the mix of calls is not that of the screen. Calls follow the shape of the dose curve; as a rule, active = well fitted inhibition curve with a large enough effect; inconclusive = small, poorly fitted or top-dose-only effect, or another doubt; inactive = no such curve, though single readings can be large or run the other way. Potencies of inconclusive entries are left out as doubtful fits.
# Test: qHTS Assay for Inhibitors of Hepatitis C Virus (HCV)
# Details: Huh7.5.1 HCVcc-Cre (HCVcc is cell-culture hepatitis C virus) infection, luciferase reporter, 44 h; series mostly up to 41.8 µM
# Outline: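 Compounds are dispensed onto cells plated 4 h earlier at 1,000 per well, with HCVcc-Cre virus (about 0.5 moi) added next. Following 44 h of culture, luminescent signal is measured for 15 sec after 15 min with substrate at room temperature.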
# Potency is read from the fitted curve at half-maximal effect; tags tell the direction and shape of the fitted curve.
row,Compound,Potency
1,COC(=O)C(NC(=O)c1ccc(OC)cc1)(Nc1ncc(S(=O)(=O)c2ccc([N+](=O)[O-])cc2)s1)C(F)(F)F (centres undefined),"inconclusive [inhibitor, single point]"
2,Cc1cc(/C=C2\SC(=O)NC2=O)c(C)n1-c1ccc(N(C)C)cc1,inactive
3,CCc1cc2c(N3CCN(c4nnc(CC)s4)CC3)ncnc2s1,active: 7.08 µM
4,CC(NC(=O)C1CC12CCC2)c1ccccc1 (centres undefined),inactive
5,Clc1ccc(CSc2nnc(-c3ccncc3)o2)cc1,"inconclusive [inhibitor, single point]"
6,CN1CCN(C(=O)c2cc(-c3ccccc3)on2)CC1,inactive
7,COCCCNC(=O)CN(Cc1ccccc1)S(=O)(=O)c1ccccc1,inactive
8,Cn1c(Br)nc2c1c(=O)n(CC(O)COc1ccccc1)c(=O)n2C (centres undefined),inactive
9,COc1cc(OC)cc(C(=O)NCCCCCCNC(=O)c2cc(OC)cc(OC)c2)c1,active: 7.08 µM
10,O=C(NCCc1cnc[nH]1)c1ccc(-c2ccccc2)cc1,"inconclusive [inhibitor, single point]"
11,Cc1ccc(C(=O)OCC(=O)c2ccc(Cl)s2)s1,"inconclusive [inhibitor, single point]"
12,O=C(COc1ccc(C(=O)c2ccc(F)cc2)cc1)Nc1cccc(S(=O)(=O)N2CCOCC2)c1,active: 6.31 µM
13,Cc1ccc(-c2cc(C(=O)NN3CCOCC3)c3cc(Br)ccc3n2)o1,inactive
14,COc1ccc(CNc2oc(COc3ccccc3)nc2C#N)cc1,"inconclusive [inhibitor, single point]"
15,COCCCNC(=O)C1CC(=O)OC1c1ccc(OC)c(OC)c1 (centres undefined),inactive
16,CCCCN(C(=O)C1CCC1)c1c(N)n(CC(C)C)c(=O)[nH]c1=O,inactive
17,O=C(CN1C(=O)NC2(CCCCCC2)C1=O)N1CCC(Cc2ccccc2)CC1,"inconclusive [inhibitor, single point]"
18,CC12CN3CC(C)(CN(C1)C3c1ccc(Cl)cc1Cl)C2O (centres undefined),"inconclusive [inhibitor, single point]"
19,COc1cc(NC(=O)Cn2nc(C(F)(F)F)c3c2CCCC3)cc(OC)c1OC,"inconclusive [inhibitor, partial curve]"
20,CN(CCC#N)C(=O)COC(=O)c1c2c(nc3ccccc13)/C(=C\c1ccco1)CC2,active: 12.6 µM
21,CC(=O)c1c(C)[nH]c(C(=O)CSc2ncnc3sc(-c4ccccc4)cc23)c1C,"inconclusive [inhibitor, single point]"
22,O=C1C=CC2=C3c4cc(O)c(O)cc4CC3(O)COC2=C1O (centres undefined),inactive
23,C[C@]12c3[nH]c4ccccc4c3CCN1C(=O)C(CC(=O)NCCN1CCOCC1)C[C@@H]2C(=O)N1CCOCC1 (some centres undefined),"inconclusive [inhibitor, full curve, poor fit]"
24,Fc1ccc(Cn2nnnc2C(c2ccc(Cl)cc2)N2CC=C(c3ccc(F)cc3)CC2)cc1 (centres undefined),inactive
25,Oc1ccccc1/C=N/Nc1ncc(Br)cn1,"inconclusive [inhibitor, partial curve]"

row,Compound,Potency
1,CCN(/C=N/c1sc2c(c1C#N)CCCCC2)CC,"inconclusive [inhibitor, partial curve, poor fit]"
2,Cc1ccc(SCCC(=O)Nc2cccc(N(C)S(C)(=O)=O)c2)cc1,"inconclusive [inhibitor, single point]"
3,c1ccc(-c2ccc(OCCCNC3CCCC3)cc2)cc1,active: 11.2 µM
4,COc1cccc(CN(C)C(=O)c2ccc3nccnc3c2)c1,inactive
5,COc1ccc(OCC(=O)N/N=C(\C)c2ccc(-n3ccnc3)cc2)cc1,inactive
6,CCOC(=O)c1nnn(-c2nonc2N)c1-c1ccc(F)cc1,inactive
7,CCO[C@@H]1OC(C(=O)NCc2nc3ccccc3[nH]2)=C[C@H](c2ccccc2)[C@H]1CCCO,"inconclusive [inhibitor, partial curve, poor fit]"
8,O=C(c1cc(S(=O)(=O)N2CCOCC2)ccc1F)N1CCc2ccccc21,"inconclusive [inhibitor, single point]"
9,O=C(N/C=C/n1cnc2cc(C(F)(F)F)ccc21)c1ccccc1,"inconclusive [inhibitor, partial curve]"
10,COc1cccc(C(=O)C(C#N)=C(SC)SC)c1,"inconclusive [inhibitor, single point]"
11,CC(C)CCNC(=O)c1ccc(Cn2c(=S)[nH]c3ccccc3c2=O)cc1,"inconclusive [inhibitor, single point]"
12,COc1ccc(/C=C2\SC(N3CCc4ccccc4C3)=NC2=O)cc1OC,inactive
13,Cc1cc(Nc2ccccc2Cl)c2ccccc2n1,"inconclusive [inhibitor, single point]"
14,CC(C)(C)C(O)C(Oc1ccc(Cl)cc1)n1cncn1 (centres undefined),"inconclusive [inhibitor, full curve]"
15,C=CCc1ccc(OCCCCN2CC(C)CC(C)C2)c(OC)c1 (centres undefined),inactive
16,COc1cccc(C(=O)Nc2nc(-c3ccccc3)c(-c3ccccc3)o2)c1,"inconclusive [inhibitor, partial curve]"
17,CCOC(=O)CSc1nc2c(c(=O)n1-c1ccc(OC)cc1)SCC2,inactive
18,COc1cc(-c2nc3n(n2)C(c2ccc(F)cc2)C2=C(CCCC2=O)N3)cc(OC)c1OC (centres undefined),"inconclusive [inhibitor, single point]"
19,CC(=O)c1cc2c(cc1NC(=O)C1CN(C(C)=O)c3ccccc3O1)OCO2 (centres undefined),"inconclusive [inhibitor, single point]"
20,O=C(CN(c1ccccc1)S(=O)(=O)c1ccccc1)Nc1ccccc1C(=O)NCc1ccco1,"inconclusive [inhibitor, single point]"
21,COc1ccc(CNC(=O)C2CCN(S(=O)(=O)c3ccc(Br)s3)CC2)cc1,"inconclusive [inhibitor, partial curve]"
22,COc1ccc(C(CNC(=O)c2ccc(Cl)c(NC(=O)c3cccs3)c2)N2CCCC2)cc1 (centres undefined),"inconclusive [inhibitor, full curve, poor fit]"
23,CC/C(=N\NC(=S)NC(C)C)c1ccc(OC)c(OC)c1,"inconclusive [inhibitor, single point]"
24,CCOC(=O)C1=C(c2cccc(Oc3ccccc3)c2)NC(=S)NC1C (centres undefined),active: 8.91 µM
25,CC1CC(C)CN(S(=O)(=O)c2ccc3c(c2)CCN3C(=O)C2CC2)C1 (centres undefined),"inconclusive [inhibitor, single point]"

row,Compound,Potency
1,Cc1ccccc1NC(=S)N(Cc1cccnc1)Cc1ccccc1Cl,inactive
2,Cc1ccc(N(CC(=O)NCc2ccc(F)cc2)S(=O)(=O)c2c(C)n[nH]c2C)cc1,inactive
3,CCNC(=S)Nc1ccc(N2CCCCC2)cc1,inactive
4,O=C(CN1CCN(Cc2ccccc2)CC1)Nc1ccccc1-c1ccccc1,"inconclusive [inhibitor, single point]"
5,Cc1ccc(C)c(S(=O)(=O)NCC(c2ccc3c(c2)OCO3)N2CCOCC2)c1 (centres undefined),inactive
6,CCCC(=O)Nc1ccc(C(=O)NNC(=S)NC(=O)c2ccc(Br)o2)cc1,"inconclusive [inhibitor, partial curve]"
7,COc1cc(N)c2ncccc2c1OC,inactive
8,Cc1cc(O)c(C(C)C)cc1N=Cc1ccccc1[N+](=O)[O-],"inconclusive [inhibitor, single point]"
9,COc1cccc(-c2nnc(NC(=O)c3ccc(S(=O)(=O)N4CC(C)OC(C)C4)cc3)o2)c1 (centres undefined),"inconclusive [inhibitor, partial curve]"
10,Cc1ccc(C2=NN=C(NC(=O)CSc3nnc4c5ccccc5n(C)c4n3)SC2)cc1,"inconclusive [inhibitor, partial curve]"
11,CN(c1ccccc1)S(=O)(=O)c1ccc(NC(=S)Nc2ccccc2)cc1,"inconclusive [inhibitor, single point]"
12,Cc1ccc(N2C(=O)c3n[nH]c(C)c3C2c2ccco2)cc1 (centres undefined),inactive
13,Cc1cccc(-c2noc(CCC(=O)Nc3ccccc3)n2)c1,inactive
14,COc1ccc(NC(=O)c2cc3ccc(O)cc3o/c2=N\O)cc1,active: 22.4 µM
15,CCC1(C)COC2(OC1)C(=O)Nc1ccccc12 (centres undefined),"inconclusive [inhibitor, single point]"
16,O=C(Nc1ccc(Cl)c(S(=O)(=O)Nc2ccccc2Cl)c1)c1cccs1,inactive
17,COC(=O)C1=C(c2ccc(-c3ccccc3)c(F)c2)C[C@@H]2CC[C@H]1N2C(=O)NC1CCCCC1,"inconclusive [inhibitor, partial curve]"
18,CC(=O)Nc1ccc(OC(=O)c2cccnc2)cc1,inactive
19,Cc1nc(SCC(=O)N2CCCc3ccccc32)c2oc3ccccc3c2n1,"inconclusive [inhibitor, single point]"
20,Cc1ccc(NC(=O)COC(=O)c2sccc2C)cc1S(=O)(=O)N1CCOCC1,"inconclusive [inhibitor, partial curve]"
21,COc1cccc(C(=O)Nc2cccc(-c3nnc(-c4ccccc4)o3)c2)c1,"inconclusive [inhibitor, partial curve]"
22,CCN1/C(=C/c2ccc3cc(C)ccc3[n+]2C)Sc2ccc3sccc3c21,"inconclusive [inhibitor, single point]"
23,CN(C)C(=O)c1sccc1Oc1ccc(F)cc1[N+](=O)[O-],inactive
24,Cc1c(C)c2cccnc2c2ncccc12,active: 3.16 µM
